In ChEMBL document CHEMBL1201862, “PubChem BioAssay data set” (2004):
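Step 1: Grow cells in 96-well plates. Step 2: Expose to compound for 48 hours at 5 concentrations. Step 3: Interpolate endpoints linearly; if unreached, use highest concentration. At the GI50, growth is halved.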 Calls of active or inactive are those of the source. No stated cut-off is given here; in the data, active = GI50 up to about 1.1 µM and inactive = higher.

Test system: NCI-H322M
Experiment: growth of human tumour cells (NCI), 48 h

Compound | GI50
Cn1c(=O)c2nc(N3CCOCC3)cnc2n(C)c1=O | inactive: > 100 µM
Oc1cc(-c2cccc(Br)c2)nc2cc3c(cc12)OCO3 | inactive: 8.75 µM
C/C(=C\c1ccccc1)C(O)C(=O)c1nc2ccc(Cl)cc2nc1O (configuration not stated) | inactive: > 100 µM
O=c1ccc(=O)n(-c2ccccc2)[nH]1 | inactive: > 100 µM
COc1c(C2(c3ccc(F)cc3)SCCCS2)c(=O)c1=O | inactive: > 100 µM
CN(C)CCNC(=O)c1cccc2[nH]c(-c3ccccc3)nc12 | inactive: 16.3 µM
COc1cc2cnc3c4cc(O)ccc4ccc3c2cc1OC | inactive: > 100 µM
O=c1ccn(/C=C/C(O)C(O)CO)c(=O)[nH]1 (configuration not stated) | inactive: > 100 µM
Cc1cc(C)nc(NS(=O)(=O)c2ccc(NNc3c4ccccc4nc4c(C(=O)Nc5ccc(S(=O)(=O)N=C(N)N)cc5)cccc34)cc2)n1 | inactive: 29.9 µM
Cc1n[nH]c(=O)n1/N=C/c1c[nH]c2ccccc12 | inactive: > 100 µM
C=CC(C)(C)NC(C(=O)N1CCC[C@H]1c1nc(-c2nc(C(=O)OCC=C(C)C)c(C)o2)c(C)o1)C(C)C (some centres not stated) | inactive: > 81.5 µM
BrC(Br)([P+](c1ccccc1)(c1ccccc1)c1ccccc1)[P+](c1ccccc1)(c1ccccc1)c1ccccc1 | inactive: 58.1 µM
CCc1ccc(NCc2cc(OC)c(OC)c(OC)c2)cc1 | inactive: 1.97 µM
Nc1ccc(C(=O)N/C(=C\c2cccc([N+](=O)[O-])c2)c2nc3ccccc3[nH]2)cc1 | inactive: > 100 µM
Cc1ccc(S(=O)(=O)N(CCNC(=O)c2cccc(O)c2O)c2cc3c4c(c2)Oc2cccc5c2C4(C)c2c(cccc2O3)O5)cc1 | inactive: > 100 µM
COc1cccc2c1C(=O)OC2c1cccc2ccccc12 (configuration not stated) | inactive: > 60.8 µM
CCC(=C(c1ccc(OCc2ccccc2)cc1)c1ccc(OCc2ccccc2)cc1)c1ccc(OC)cc1 | inactive: > 100 µM
N=C1NC(c2ccc(Cl)cc2)=CC(c2cccc(Cl)c2)S1 (configuration not stated) | inactive: 42.7 µM
CC1=NN(C(=O)c2ccc(Cl)cc2)C(=O)/C1=C/c1c(O)cc(O)c2ccccc12 | inactive: > 100 µM

Compound | GI50
CSc1ccn(C2CC(F)C(CO)O2)c(=O)n1 (configuration not stated) | inactive: > 100 µM
COc1ccc(C(C)Nc2cc(OC)c(OC)c(OC)c2)cc1 (configuration not stated) | inactive: 5.79 µM
NCC1OC(n2cnc3c(=O)[nH]c(N)nc32)C(O)C1O (configuration not stated) | inactive: > 100 µM
COc1cc(/C=C2\CCc3ccccc3C2=O)ccc1O | inactive: 17 µM
O=C1CSc2ccncc2N1 | inactive: > 100 µM
CCOC(=O)/C=C/c1c[nH]c(=O)[nH]c1=O | inactive: > 75 µM
CCOC(=O)/C=C/[C@H](O)[C@@H](O)/C=C/C(=O)OCC | inactive: 33.5 µM
CCC(=O)NC(Nc1ccccc1F)(C(F)(F)F)C(F)(F)F | inactive: > 100 µM
O=C(O)c1ccc2c(c1)CC1(C2)Cc2cc3c(cc2C1=O)CCC3 (configuration not stated) | inactive: > 100 µM
O=C1Cc2ccccc2CCc2ccccc21 | inactive: > 100 µM
Cn1cc(C2(C)CC(C)(C)c3c2n(C)c2ccccc32)c2ccccc21 (configuration not stated) | inactive: > 100 µM
COc1cc(OC)c2nc(C)c(CCCl)c(Cl)c2c1 | inactive: > 100 µM
CC1OC2=N[C@@H]1C(=O)N[C@@H](C(C)C)C1=N[C@H](C(=O)N[C@@H](C(C)C)C3=N[C@H](C(=O)N[C@@H](C(C)C)C4=N[C@H](C(=O)N[C@H]2C(C)C)C(C)O4)C(C)O3)C(C)O1 (some centres not stated) | inactive: > 10 µM
Cc1cc2c(O)c(c1)COCc1cc(C)cc(c1O)COCc1cc(C)cc(c1O)COC2 | inactive: > 100 µM
Cc1cc(C)c(S(=O)(=O)N(CCCN)OCCCN)c(C)c1 | inactive: > 100 µM
O=C(/N=N/c1ccc(Br)cc1)NNc1ccc(Br)cc1 | inactive: 38.5 µM
COc1ccc(/C=C2\CCCCCC2=O)cc1 | inactive: > 100 µM
COC(=O)C1CC23C4=C(CCC41)CCC1CN4CC(C)C(CC(OC(C)=O)C12COC(C)=O)C43O (configuration not stated) | inactive: > 100 µM
